Test results as given in patent US12115208B2, “Small-molecule adjuvants for antibiotics to address antibiotic resistance” (HIGH POINT UNIVERSITY, priority 2017, dated 2024).
Like-named read-outs stand apart in the source and are kept apart here.

Legend:
[1] = system: S. epidermidis ATCC 49461 biofilm; test: Biofilm inhibition, crystal violet assay; type: cell-based; conditions: Staphylococcus epidermidis, ATCC49461, 30 h, read-out: Inhibition of biofilm formation IC50
Method: (§1) A standard static crystal violet assay was used to quantify biofilm inhibition.^45 Cultures of S. aureus or S. epidermidis were grown overnight in TSBG (tryptic soy broth with 5% glucose) at 37° C. with shaking. These cultures were used to inoculate fresh TSBG to a calculated optical density of 0.01 at 600 nm (OD600). […] Untreated aliquots were used as a positive control and water served as a negative control. 100 μl of these suspensions were added to the wells of a 96-well polyvinylchloride microtiter plate. […] After incubation, media was discarded and the plates were washed with water to remove non-adherent cells. Adherent biofilms were stained with 110 μl of crystal violet (0.1% in water) and incubated at room temperature for thirty minutes. The crystal violet staining solution was discarded and plates were washed with water to remove excess stain. The resulting stained biofilms were solubilized with 200 μL of 95% ethanol for 10 minutes. 125 μl of the ethanol solutions were transferred to a clear polystyrene microtiter plate for evaluation. Absorbance at 540 nm was recorded using a BioTek Synergy H1 microplate reader. The absorbance of the negative control lanes was subtracted from the experimental values to account for background staining. Percent inhibition was calculated by comparison of the absorbance values of control versus treated wells under identical conditions.

[2] = system: S. aureus USA300 (MRSA); test: Antibiotic repotentiation (antibiotic MIC with/without compound); type: cell-based, Staphylococcus aureus; conditions: for Fold Reduction: oxacillin MIC
Method: (§2) The overnight culture was diluted into fresh CAMHB to a concentration of 5×10^5 CFU/ml. […] On the same plate, a standard microdilution MIC with the tested antibiotics and no added compound was also performed to compare the antibiotic MIC in the presence and absence of compound. […] Fold reductions were calculated by dividing the MIC of the antibiotic without compound by the MIC of the antibiotic in the presence of compound.
(§3) The compounds were then analyzed for antibiotic repotentiation activity. […] The tested strains included USA300, which is a common and particularly virulent strain of community-acquired MRSA.

[3] = system: S. aureus 43300 (MRSA); test: as above; type: cell-based, Staphylococcus aureus; conditions: for Fold Reduction: oxacillin MIC, S. aureus 43300 (MRSA)
Method: as §2, §3

[4] = system: S. aureus ATCC 29213; test: as above; type: cell-based, Staphylococcus aureus; conditions: oxacillin MIC
Method: as §2, §3

[5] = system: S. epidermidis 49461; test: Antibiotic repotentiation (oxacillin MIC with/without compound); type: cell-based, Staphylococcus epidermidis; conditions: +75 μM compound
Method: as §2
Antibiotic potentiation in S. epidermidis was also investigated.

[6] = system: MRSA 43300 biofilm; test: Biofilm inhibition, crystal violet assay; type: cell-based; conditions: Staphylococcus aureus, 30 h, read-out: Biofilm inhibition IC50
Method: as §1, with “The crystal violet staining solution was discarded and plates were washed with water to remove excess stain. The resulting stained biofilms were solubilized with 200 μL of 95% ethanol for 10 minutes. 125 μl of the ethanol solutions were transferred to a clear polystyrene microtiter plate for evaluation.” left out
Antibiotic resistance and biofilm formation share similar regulatory mechanisms. […] Biofilm inhibition was first assessed in S. aureus 43300, a methicillin-resistant strain (see Table 18). […] The standard deviation is calculated from at least 3 independent experiments.

[7] = system: S. aureus USA100 (MRSA); test: microbe, parasite or virus in culture; type: cell-based; conditions: Staphylococcus aureus, 18 h
[8] = system: S. aureus ATCC 43300 (MRSA); test: Minimum inhibitory concentration, broth microdilution; type: cell-based; conditions: Staphylococcus aureus, 18 h
Method: as §3

[9] = system: S. aureus USA300 (MRSA); test: as above; type: cell-based; conditions: Staphylococcus aureus, 18 h
Method: as §3

[10] = system: S. aureus ATCC 29213; test: as above; type: cell-based; conditions: Staphylococcus aureus, ATCC29213, 18 h
Method: as §3

[11] = system: S. aureus NR-49120 (VRSA); test: microbe, parasite or virus in culture; conditions: Staphylococcus aureus, 18 h
[12] = system: various S. aureus strains; test: microbe, parasite or virus in culture; conditions: Staphylococcus aureus, read-out: MICs
[13] = system: S. aureus USA100 (MRSA); test: Antibiotic repotentiation (antibiotic MIC with/without compound); type: cell-based, Staphylococcus aureus; conditions: +50 μM compound
Method: as §2

[14] = system: S. aureus NR-49120 (VRSA); test: as above; type: cell-based, Staphylococcus aureus; conditions: +50 μM compound
Method: as §2

[15] = +50 μM compound, S. aureus USA300 (MRSA)

Clc1ccc2c(c1)C(N1CCNCC1)=Nc1ccccc1O2 [Amoxapine, 2-chloro-11-(1-piperazinyl)dibenz[b,f][1,4]oxazepine]
IC50 [1]: 156 µM | Fold Reduction ([2]; +75 μM compound, USA300 (MRSA)): 2 | Fold Reduction ([2]; +150 μM compound, USA300 (MRSA)): 16 | Fold Reduction ([3]; +75 μM compound): 4 | Fold Reduction ([3]; +150 μM compound): 16 | Fold Reduction ([4]; +75 μM compound): 1 | Fold Reduction ([4]; +150 μM compound): 2 | Fold Reduction [5]: 4 | IC50 ([6]; MRSA 43300, crystal violet): 333 µM

CN1CCN(C2=Nc3cc(Cl)ccc3Nc3ccccc32)CC1 [Clozapine, 8-chloro-11-(4-methyl-1-piperazinyl)-5H-dibenzo[b,e][1,4]diazepine]
IC50 [1]: 149 µM | Fold Reduction ([3]; +75 μM compound): 1 | Fold Reduction ([3]; +150 μM compound): 8 | Fold Reduction [5]: 1

Clc1ccc2c(c1)CCc1cccnc1C2=C1CCNCC1 [Desloratadine]
MIC [7]: > 200 µM | MIC [8]: > 200 µM | MIC [9]: > 200 µM | MIC [10]: > 200 µM | Oxacillin MIC [2, 15]: 32 µg/mL | Fold Reduction [2, 15]: 1 | Oxacillin MIC ([3]; +50 μM compound, S. aureus ATCC 43300 (MRSA)): 16 µg/mL | Fold Reduction ([3]; +50 μM compound): 2 | MIC [11]: > 200 µM | MIC [12]: > 200 µM | IC50 [6]: > 200 µM | Oxacillin MIC [13]: 256 µg/mL | Fold Reduction ([13]; oxacillin MIC): 1 | Oxacillin MIC [14]: 128 µg/mL | Fold Reduction ([14]; oxacillin MIC): 1
